From PubChem BioAssay (NCATS)
Where “and” joins values, the source holds several entries; their conditions need not be identical. Identical values can stand only once. The shares of active, inactive and inconclusive entries below differ from those in the screen. A potency beside an inconclusive call is a rough fit, not a confirmed value. Calls of active or inactive are those of the source. Calls come from the whole dose curve; as a rule, active = well fitted cell-killing curve with a large enough effect; inconclusive = small, poorly fitted or top-dose-only effect, or effect the other way; inactive = no such curve, though single readings can be large or run the other way.

Columns and labels:
[1] = Viability qHTS for spleen associated tyrosine kinase inhibitor (SYKi) naive MV4-11 cells (AID 1963823); note: nearly all actives have a fitted effect of over 40% in size
Summary of the method: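 Viability of MV4-11 AML cells lacking prior SYK inhibitor exposure is scored by CellTiter-Glo luminescence following 72 hr compound incubation at 37 C, 5% CO2, seeded at 500 cells per well.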

[2] = Viability qHTS for spleen associated tyrosine kinase inhibitor (SYKi) drug resistant MV4-11 cells (AID 1963824); note: nearly all actives have a fitted effect of over 35% in size
Summary of the method: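 SYK inhibitor-resistant MV4-11 AML cells, 500 per well, added to predispensed compounds and incubated 72 hr at 37 C, 5% CO2. Viability measured by CellTiter-Glo luminescence after 10 min at room temperature.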
Potency is the fitted concentration of half-maximal effect; tags give direction and shape of the fitted curve.

SMILES | Potency [1] | Potency [2]
C/C1=C/[C@@H](C)C/C=C/[C@H]2[C@@H]3O[C@]3(C)[C@@H](C)[C@H]3[C@H](Cc4c[nH]c5ccccc45)NC(=O)[C@]32C(=O)/C=C\C(=O)[C@@H]1O | inconclusive: 1 µM [cytotoxic, partial curve, poor fit] | inconclusive: 2.24 µM [cytotoxic, partial curve, poor fit]
CN(C)CCc1c[nH]c2ccc(O)cc12 | inconclusive: 15 µM [cytotoxic, partial curve, poor fit] | inconclusive: 2.38 µM [cytotoxic, partial curve, poor fit]
CC[C@]1(O)CC[C@H]2[C@@H]3CCC4=CCCC[C@@H]4[C@H]3CC[C@@]21C | inconclusive: 2.11 µM [rising, partial curve] | inconclusive: 2.99 µM [rising, partial curve, poor fit]
C[C@@H]1CC[C@H]2[C@@H](C)C(=O)O[C@@H]3O[C@@]4(C)CC[C@@H]1[C@]32OO4 | inconclusive: 3.76 µM [cytotoxic, partial curve, poor fit] and inconclusive: 5.25 µM [cytotoxic, full curve] | inconclusive: 4.22 µM [cytotoxic, partial curve, poor fit] and inconclusive: 2.09 µM [cytotoxic, full curve]
CCC1CN2CCC3(C(=O)Nc4cccc(O)c43)C2CC1/C(=C/OC)C(=O)OC (centres undefined) | inconclusive: 8.93 µM [cytotoxic, single point] | inconclusive: 7.96 µM [cytotoxic, partial curve, poor fit]
C=C[C@H]1CN2CCC1C[C@H]2[C@H](O)c1ccnc2ccccc12 (some centres undefined) | inconclusive: 29.1 µM [cytotoxic, single point] | inconclusive: 18.4 µM [cytotoxic, single point]
C[C@@](O)(COc1ccc(C#N)cc1)C(=O)Nc1ccc(C#N)c(C(F)(F)F)c1 | inconclusive: 20.6 µM [cytotoxic, partial curve] | inconclusive: 29.1 µM [cytotoxic, single point]
Nc1ccc([N+](=O)[O-])cc1 | inconclusive: 0.0019 µM [rising, full curve] | inconclusive: 38.6 µM [cytotoxic, partial curve, poor fit]
CC(C)(NC(=O)[C@@H](N)Cc1ccc(O)cc1)C(=O)N[C@@H](Cc1cc2ccccc2[nH]1)C(=O)N[C@@H](Cc1ccccc1)C(=O)O | active: 3.35 µM | inconclusive: 2.99 µM [cytotoxic, single point]
CCC1CC2CN3CCc4c([nH]c5ccccc45)C(C(=O)OC)(C2)C13 (centres undefined) | inconclusive: 12.8 µM [cytotoxic, partial curve, poor fit] | inconclusive: 14.3 µM [cytotoxic, partial curve]
COc1cc(C)[nH]c(=O)c1CNC(=O)c1c(C)n([C@H](C)C2CCN(CC(F)(F)F)CC2)c2ccccc12 | inconclusive: 29.5 µM [cytotoxic, partial curve, poor fit] | inconclusive: 16.6 µM [cytotoxic, partial curve]
C[C@@]1(C(=O)O)CC[C@]2(C)CC[C@]3(C)C4=CC(=O)c5cc(O)c(O)cc5[C@]4(C)CC[C@@]3(C)[C@@H]2C1 | inconclusive: 10 µM [cytotoxic, single point] | inconclusive: 5.02 µM [cytotoxic, partial curve, poor fit]
O=C(O)C1=CCCN(CCOC(c2ccc(C(F)(F)F)cc2)c2ccc(C(F)(F)F)cc2)C1 | inconclusive: 33.2 µM [cytotoxic, single point] | inconclusive: 20.9 µM [cytotoxic, partial curve]
CCCOC(=O)Cc1ccc(OCC(=O)N(CC)CC)c(OC)c1 | inconclusive: 3.17 µM [cytotoxic, partial curve, poor fit] | inconclusive: 7.09 µM [cytotoxic, partial curve]
COc1ccc2c(C(=O)c3ccc(Cl)cc3)c(C)n(CC(=O)O)c2c1 | inconclusive: 23.7 µM [cytotoxic, single point] | inconclusive: 15 µM [cytotoxic, partial curve, poor fit]
CC[C@@H]1C[C@H]2CC[C@H](O2)[C@H](C)C(=O)O[C@@H](C)C[C@@H]2CC[C@@H](O2)[C@@H](C)C(=O)O[C@H](CC)C[C@H]2CC[C@H](O2)[C@H](C)C(=O)O[C@@H](C)C[C@@H]2CC[C@@H](O2)[C@@H](C)C(=O)O1 | active: 0.0306 µM | active: 0.0193 µM
Cn1c(/C=C/CO)c(CO)c2c1C(=O)C=C(N1CC1)C2=O | inconclusive: 18.6 µM [cytotoxic, partial curve] | inconclusive: 20.9 µM [cytotoxic, partial curve]
CN(C)CCc1c[nH]c2cccc(OP(=O)(O)O)c12 | inconclusive: 13.4 µM [cytotoxic, partial curve, poor fit] | inactive
CC(C)(C)OC(=O)c1ncn2c1[C@@H]1CCCN1C(=O)c1c(Br)cccc1-2 | inactive | inconclusive: 10.6 µM [cytotoxic, partial curve, poor fit]

SMILES | Potency [1] | Potency [2]
CC(C)=CCOc1c2occc2cc2ccc(=O)oc12 | inconclusive: 1.19 µM [cytotoxic, partial curve, poor fit] | inconclusive: 1.19 µM [cytotoxic, full curve, poor fit]
CN1C(=O)c2ccccc2NC(=O)C1Cc1ccccc1 (centres undefined) | inconclusive: 20.6 µM [cytotoxic, partial curve] | inconclusive: 10.3 µM [cytotoxic, partial curve, poor fit]
Cc1cccc(NC(=O)NC2N=C(c3ccccc3)c3ccccc3N(CC(=O)c3ccccc3C)C2=O)c1 (centres undefined) | inconclusive: 6.51 µM [cytotoxic, partial curve] | inconclusive: 3.66 µM [cytotoxic, full curve]
CC[C@@H](C)[C@@H]1NC(=O)[C@@H]2CCCN2C(=O)[C@@H](CC(O)CCl)OC(=O)CCNC(=O)[C@H](C)N(C)C(=O)[C@H](C(C)C)N(C)C1=O (some centres undefined) | inconclusive: 0.172 µM [cytotoxic, full curve] | inconclusive: 0.193 µM [cytotoxic, full curve]
COc1ccc(C(C)(C)C)cc1CN[C@H]1C2CCN(CC2)[C@H]1C(c1ccccc1)c1ccccc1 | inconclusive: 4.61 µM [cytotoxic, full curve, poor fit] | inconclusive: 5.17 µM [cytotoxic, full curve]
CN1C(=O)c2ccccc2NC(=O)[C@]12O[C@@H]2c1ccccc1 | inconclusive: 18.4 µM [cytotoxic, single point] | inconclusive: 25.9 µM [cytotoxic, single point]
O=S(=O)(c1ccccc1F)N1CCOc2c(N3CCNCC3)cccc21 | inconclusive: 25.9 µM [cytotoxic, single point] | inconclusive: 20.6 µM [cytotoxic, single point]
CS[C@]1(CO)C(=O)N2[C@H]3C(=CC=C[C@@H]3O)C[C@@]2(SC)C(=O)N1C | inconclusive: 12.8 µM [cytotoxic, single point] | inconclusive: 4.53 µM [cytotoxic, partial curve, poor fit]
COc1cc(N2CCN(C)CC2)ccc1N | inconclusive: 20.6 µM [cytotoxic, single point] | inconclusive: 18.4 µM [cytotoxic, single point]
CC(=O)OC[C@]12C[C@H](O)C(C)=C[C@H]1O[C@@H]1[C@H](O)[C@@H](OC(C)=O)[C@@]2(C)[C@]12CO2 | inconclusive: 0.0057 µM [cytotoxic, full curve] | inconclusive: 0.0072 µM [cytotoxic, full curve]
CCCCCCCCCC(CC)c1ccc(S(=O)(=O)O)cc1 (centres undefined) | active: 7.7 µM | inconclusive: 9.69 µM [cytotoxic, full curve]
CO[C@H]1C[C@H](O[C@H]2CC[C@]3(CO)[C@H]4CC[C@]5(C)[C@@H](C6=CC(=O)OC6)CC[C@]5(O)[C@@H]4CC[C@]3(O)C2)O[C@H](C)[C@H]1O | active: 0.1 µM | active: 0.0632 µM
Oc1ccc([C@H]2CNCc3c2ccc(O)c3O)cc1O | inconclusive: 33.5 µM [cytotoxic, single point] | inconclusive: 26.6 µM [cytotoxic, single point]
C/C=C(/C)C(=O)O[C@H]1C(C)=C2[C@H]([C@@H]1OC(=O)CCCCCCC)[C@@](C)(OC(C)=O)C[C@H](OC(=O)CCC)[C@@]1(O)[C@H]2OC(=O)[C@@]1(C)O | active: 25.9 nM and active: 20.9 nM | active: 18.4 nM and active: 3.7 nM
O=C(N[C@H]1N=C(c2ccccc2F)c2cccc3c2N(CC3)C1=O)c1cc2ccccc2[nH]1 | inconclusive: 21.1 µM [cytotoxic, partial curve] | inconclusive: 8.41 µM [cytotoxic, partial curve]
Cc1cccc(NC(=O)c2ccc(C(F)(F)F)cc2C(=O)O)n1 | inactive | inactive
COCC(=O)N(c1c(C)cccc1C)C(C)C(=O)OC (centres undefined) | inactive | inactive
C[C@H]1CN(Cc2ccc(CC(=O)N3CCC(Nc4cccc(F)c4)CC3)cc2)CCN1 | inconclusive: 18.4 µM [cytotoxic, partial curve] | inconclusive: 18.4 µM [cytotoxic, partial curve]
